# Some entries share one result that the patent states for a list of compounds. For part of these data: At least one compound was matched to its structure with a doubt left.
# Tests used:
# human NK3 receptor = biological target: T1, human NK3 receptor (Homo sapiens, UniProt P29371); test: Binding potency of the test substances to NK3-receptors in vitro ([3H]-SR 142801 displacement); design: expressed in transfected cells; host or cells: CHO cells (membrane preparation); details: human NK3-receptor in CHO cell membranes, [3H]-SR 142801 (osanetant); average of at least three measurements
# T1 sequence (P29371 1-465): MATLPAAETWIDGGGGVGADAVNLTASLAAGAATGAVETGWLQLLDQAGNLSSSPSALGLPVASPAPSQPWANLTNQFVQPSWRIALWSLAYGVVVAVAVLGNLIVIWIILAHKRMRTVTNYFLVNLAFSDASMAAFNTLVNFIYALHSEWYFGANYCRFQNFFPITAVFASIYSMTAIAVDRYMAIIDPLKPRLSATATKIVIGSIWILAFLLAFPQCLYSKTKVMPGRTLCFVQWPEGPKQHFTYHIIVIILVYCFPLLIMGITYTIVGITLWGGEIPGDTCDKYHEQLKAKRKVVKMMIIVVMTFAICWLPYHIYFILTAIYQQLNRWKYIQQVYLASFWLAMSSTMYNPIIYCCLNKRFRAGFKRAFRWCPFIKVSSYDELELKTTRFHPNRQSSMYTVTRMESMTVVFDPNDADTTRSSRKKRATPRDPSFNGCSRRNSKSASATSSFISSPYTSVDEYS
# Text: 3. Determination of the Binding Potency of the Test Substances to NK3-Receptors in Vitro
# The affinity of test compounds for NK3-receptors can be determined by measuring the ability of the test compound to displace a radiolabeled ligand from its specific binding site.
# (§1) The radiolabel used in this assay is [^3H]-SR 142801 (osanetant). Receptors were obtained from membrane preparations of CHO-cells (Chinese Hamster Ovary cells), in which the human NK3-receptor was stably expressed. Membranes were incubated with [^3H]-osanetant in the absence or presence of test compounds at different concentrations, diluted in a buffer system. Separation of bound radioactivity from free radioactivity was done by filtration through glass fiber filters (Packard GF/B) with several washings with ice-cold buffer solution. Bound radioactivity was measured with a liquid scintillation counter (total binding). Unspecific binding was determined by incubation with an excess (1 μmol/l) of unlabeled osanetant. Specific binding is obtained by subtracting the unspecific binding from the total binding.
# (§2) Radioactivity of the specific binding was plotted against the concentration of the test compound and IC50 values, i.e. the concentration of test compound by which 50% of the radioligand is displaced, were calculated. The inhibition constant (Ki) was calculated according to the Cheng-Prusoff equation, and listed as its negative logarithmic value (pKi) The pKi value describes the potency of a test compound to bind to a receptor.
# (§3) The average result of all measurements is listed above.
# human NK1-receptor = human NK1-receptor (Homo sapiens, UniProt P25103); test: Binding potency of the test substances to NK1-receptors in vitro ([3H]-Substance P displacement); details: human NK1-receptor in CHO cell membranes, average of at least three measurements
# Description: 1. Determination of the Binding Potency of the Test Substances to NK1-Receptors in Vitro
# The affinity of test compounds for NK1-receptors can be determined by measuring the ability of the test compound to displace a radiolabeled ligand from its specific binding site. The tests were performed at Solvay Pharmaceuticals, Weesp, The Netherlands.
# Separation of bound radioactivity from free radioactivity was done by filtration through glass fiber filters (Packard GF/B) with several washings with ice-cold buffer solution. Bound radioactivity was measured with a liquid scintillation counter (total binding).
# The inhibition constant (Ki) was calculated according to the Cheng-Prusoff equation, and listed as its negative logarithmic value (pKi). The pKi value describes the potency of a test compound to bind to a receptor.
# human NK2-receptor = biological target: T2, human NK2-receptor (Homo sapiens, UniProt P21452); test: Binding potency of the test substances to NK2-receptors in vitro ([3H]-SR 48968 displacement); design: expressed in transfected cells; host or cells: CHO cells (membrane preparation); details: human NK2-receptor in CHO cell membranes, [3H]-SR 48968 (saredutant), average of at least three measurements
# T2 sequence (P21452 1-398): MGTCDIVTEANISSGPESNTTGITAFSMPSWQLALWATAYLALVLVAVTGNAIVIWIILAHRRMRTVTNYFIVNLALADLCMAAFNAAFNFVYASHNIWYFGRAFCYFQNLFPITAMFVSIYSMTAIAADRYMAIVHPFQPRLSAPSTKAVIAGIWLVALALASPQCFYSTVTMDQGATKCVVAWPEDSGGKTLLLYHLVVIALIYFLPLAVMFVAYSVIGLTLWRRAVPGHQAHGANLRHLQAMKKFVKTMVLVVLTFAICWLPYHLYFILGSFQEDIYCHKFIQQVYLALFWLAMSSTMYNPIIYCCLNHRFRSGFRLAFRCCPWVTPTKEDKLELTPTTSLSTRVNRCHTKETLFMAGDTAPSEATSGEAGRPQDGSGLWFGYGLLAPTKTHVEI
# Text: 2. Determination of the Binding Potency of the Test Substances to NK2-Receptors in Vitro
# The affinity of test compounds for NK2-receptors can be determined by measuring the ability of the test compound to displace a radiolabeled ligand from its specific binding site.
# as §1, with “48968 (saredutant).” for “142801 (osanetant).”, “NK2-receptor” for “NK3-receptor”, “[^3H]-saredutant” for “[^3H]-osanetant”, “(0.1” for “(1”, “saredutant.” for “osanetant.”
# as §2, with “(pKi).” for “(pKi)”
# as §3
# human NK1-receptor, sequence (P25103 whole entry): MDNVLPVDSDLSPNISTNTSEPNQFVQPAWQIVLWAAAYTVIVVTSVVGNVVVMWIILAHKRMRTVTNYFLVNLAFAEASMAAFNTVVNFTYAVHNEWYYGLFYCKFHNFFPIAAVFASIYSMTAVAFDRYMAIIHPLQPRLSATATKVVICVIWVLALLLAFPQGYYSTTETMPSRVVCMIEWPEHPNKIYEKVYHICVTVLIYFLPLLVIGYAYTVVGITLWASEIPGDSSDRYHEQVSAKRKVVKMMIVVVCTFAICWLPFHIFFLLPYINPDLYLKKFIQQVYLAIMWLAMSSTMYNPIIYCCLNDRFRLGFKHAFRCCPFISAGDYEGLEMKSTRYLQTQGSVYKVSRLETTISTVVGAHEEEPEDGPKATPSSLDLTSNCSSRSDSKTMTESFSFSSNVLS
SMILES,"pKi, binding potency to NK3-receptors (human NK3 receptor)","pKi, binding potency to NK1-receptors (human NK1-receptor)",also measured
CN(C)C(=O)C1(N2CCCCC2)CCN(CC[C@H](CN(C)C(=O)c2ccccc2)c2ccc(Cl)c(Cl)c2)CC1 [compound 1],at least 8.0,at least 7.0,
CN(C)C(=O)C1(N2CCCCC2)CCN(CC[C@H](CN(C)C(=O)c2ccc(F)cc2)c2ccc(Cl)c(Cl)c2)CC1 [compound 4],at least 8.0,,
CN(C)C(=O)C1(N2CCCCC2)CCN(CCC(CN(C)C(=O)c2cc(Cl)ccc2F)c2ccc(Cl)c(Cl)c2)CC1 (stereo not drawn) [compound 10],at least 8.0,at least 7.0,
CN(C)C(=O)C1(N2CCCCC2)CCN(CC[C@H](CN(C)C(=O)c2cc(C#N)c3ccccc3c2)c2ccc(Cl)c(Cl)c2)CC1 [compound 11],,,"pKi, binding potency to NK2-receptors (human NK2-receptor; listed as Example 11): at least 8.0"
CN(C)C(=O)C1(N2CCCCC2)CCN(CC[C@H](CN(C)C(=O)c2ccccc2O)c2ccc(Cl)c(Cl)c2)CC1 [compound 12],,,"pKi, binding potency to NK2-receptors (human NK2-receptor; listed as Example 12): at least 8.0"
CN(C)C(=O)C1(N2CCCCC2)CCN(CCC(CN(C)C(=O)c2ccc(Cl)nc2)c2ccc(Cl)c(Cl)c2)CC1 (stereo not drawn) [compound 18],at least 8.0,,
CN(C)C(=O)C1(N2CCCCC2)CCN(CCC(CN(C)C(=O)C2CCCC2)c2ccc(Cl)c(Cl)c2)CC1 (stereo not drawn) [compound 23],at least 8.0,,
CNc1ccccc1C(=O)N(C)CC(CCN1CCC(C(=O)N(C)C)(N2CCCCC2)CC1)c1ccc(Cl)c(Cl)c1 (stereo not drawn) [compound 24],,at least 7.0,
CN(C)C(=O)C1(N2CCCCC2)CCN(CCC(CN(C)C(=O)c2ccoc2)c2ccc(Cl)c(Cl)c2)CC1 (stereo not drawn) [compound 36],at least 8.0,,
CN(C)C(=O)C1(N2CCCCC2)CCN(CCC(CN(C)C(=O)c2ccccn2)c2ccc(Cl)c(Cl)c2)CC1 (stereo not drawn) [compound 43],at least 8.0,,
CN(C)C(=O)C1(N2CCCCC2)CCN(CCC(CN(C)C(=O)Cc2ccccn2)c2ccc(Cl)c(Cl)c2)CC1 (stereo not drawn) [compound 49],at least 8.0,,
CN(C)C(=O)C1(N2CCCCC2)CCN(CCC(CN(C)C(=O)Cc2cccnc2)c2ccc(Cl)c(Cl)c2)CC1 (stereo not drawn) [compound 50],at least 8.0,,
CN(C)C(=O)C1(N2CCCCC2)CCN(CCC(CN(C)C(=O)Cc2ccncc2)c2ccc(Cl)c(Cl)c2)CC1 (stereo not drawn) [compound 51],at least 8.0,,
CN(C)C(=O)C1(N2CCCCC2)CCN(CCC(CN(C)C(=O)C2CCOCC2)c2ccc(Cl)c(Cl)c2)CC1 (stereo not drawn) [compound 53],at least 8.0,,
CN(C)C(=O)C1(N2CCCCC2)CCN(CCC(CN(C)C(=O)c2ccc(NC(=O)OC(C)(C)C)cc2)c2ccc(Cl)c(Cl)c2)CC1 (stereo not drawn) [compound 54],at least 8.0,,
CN(C)C(=O)C1(N2CCCCC2)CCN(CCC(CN(C)C(=O)c2ccc(OC(F)(F)F)cc2)c2ccc(Cl)c(Cl)c2)CC1 (stereo not drawn) [compound 55],at least 8.0,,
CN(C)C(=O)C1(N2CCCCC2)CCN(CCC(CN(C)C(=O)Cc2ccc(C(F)(F)F)c(C(F)(F)F)c2)c2ccc(Cl)c(Cl)c2)CC1 (stereo not drawn) [compound 56],at least 8.0,at least 7.0,
Cc1c(C(=O)N(C)CC(CCN2CCC(C(=O)N(C)C)(N3CCCCC3)CC2)c2ccc(Cl)c(Cl)c2)nnn1Cc1ccccc1 (stereo not drawn) [compound 67],at least 8.0,,
CN(C)C(=O)C1(N2CCCCC2)CCN(CCC(CN(C)C(=O)c2ccc3occc3c2)c2ccc(Cl)c(Cl)c2)CC1 (stereo not drawn) [compound 68],at least 8.0,,
CN(C)C(=O)C1(N2CCCCC2)CCN(CCC(CN(C)C(=O)c2cc(C(F)(F)F)cc(C(F)(F)F)c2)c2ccc(Cl)c(Cl)c2)CC1 (stereo not drawn) [compound 70],,at least 7.0,
CN(C)C(=O)C1(N2CCCCC2)CCN(CCC(CN(C)C(=O)c2cccc(Cl)c2)c2ccc(Cl)c(Cl)c2)CC1 (stereo not drawn) [compound 80],,at least 7.0,
COc1cccc(C(=O)N(C)CC(CCN2CCC(C(=O)N(C)C)(N3CCCCC3)CC2)c2ccc(Cl)c(Cl)c2)c1 (stereo not drawn) [compound 82],,at least 7.0,
CN(C)C(=O)C1(N2CCCCC2)CCN(CCC(CN(C)C(=O)c2cccc(C(F)(F)F)c2)c2ccc(Cl)c(Cl)c2)CC1 (stereo not drawn) [compound 83],at least 8.0,,
CNC(=O)C1(N2CCCCC2)CCN(CCC(CN(C)C(=O)c2cc(C#N)cc3ccccc23)c2ccc(Cl)c(Cl)c2)CC1 (stereo not drawn) [compound 93],,at least 7.0,
CN(C)C(=O)C1(N2CCCC2)CCN(CCC(CN(C)C(=O)c2cc(C#N)cc3ccccc23)c2ccc(Cl)c(Cl)c2)CC1 (stereo not drawn) [compound 98],,at least 7.0,
"CN(C[C@@H](CCN1CCC(C(=O)N2CCCC2)(N2CCCC2)CC1)c1ccc(Cl)c(Cl)c1)C(=O)c1cc(C#N)cc2ccccc12 [compound 102, 3-cyano-N-{(2S)-2-(3,4-dichlorophenyl)-4-[4-pyrrolidin-1-yl-4-(pyrrolidin-1-ylcarbonyl)piperidin-1-yl]butyl}-N-methyl-1-naphthamide]",,at least 7.0,
"CN(C[C@@H](CCN1CCC(C(=O)N2CCCC2)(N2CCCC2)CC1)c1ccc(Cl)c(Cl)c1)C(=O)c1ccccc1 [compound 103, N-{(2S)-2-(3,4-dichlorophenyl)-4-[4-pyrrolidin-1-yl-4-(pyrrolidin-1-ylcarbonyl)piperidin-1-yl]butyl}-N-methylbenzamide]",,at least 7.0,
CN(CC(CCN1CCC(C(=O)N2CCCCC2)(N2CCCCC2)CC1)c1ccc(Cl)c(Cl)c1)C(=O)c1cc(C#N)cc2ccccc12 (stereo not drawn) [compound 125],,at least 7.0,
CN(CC(CCN1CCC(C(=O)N2CCCC2)(N2CCCCC2)CC1)c1ccc(Cl)c(Cl)c1)C(=O)c1cc(C#N)cc2ccccc12 (stereo not drawn) [compound 126],,at least 7.0,
CN(C)C(=O)C1(N(C)C)CCN(CCC(CN(C)C(=O)c2ccccc2)c2ccc(Cl)c(Cl)c2)CC1 (stereo not drawn) [compound 127],,at least 7.0,
